Among all 350,000 compounds or so, about 31,000 (8.9%) were called active. Inconclusive means that the source gave no clear call. Such entries were picked first, then a sample of the others. The call rests on the fitted dose curve; in most records, active means well fitted inhibition curve with a large enough effect; inconclusive means small, poorly fitted or top-dose-only effect; inactive means no such curve, though single readings can be large or run the other way. Where the call is inconclusive, the potency comes from a doubtful curve fit.
Target: Histone-lysine N-methyltransferase EHMT2 (Homo sapiens) (UniProt Q96KQ7)
Assay: qHTS Assay for Inhibitors of Histone Lysine Methyltransferase G9a; further: nearly all actives have a fitted effect of over 75% in size
Conditions: G9a H3K9 monomethylation, AlphaScreen, 2 h; activity, negative = inhibition: at 59 µM (top of the series) unless noted
In short: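 Methyltransferase reactions run at room temperature for 2 h (20 nM enzyme, 500 nM biotin-H3K9 peptide, 20 uM SAM) after a 15 min compound preincubation; product detected by AlphaScreen beads and anti-H3K9me1 antibody.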
On the % scale 0 is the no-effect control and ±100 the full control effect; potency means the concentration at half of the fitted maximal effect; tags describe the fitted curve by direction and shape.

UniProt Q96KQ7, sequence (Q96KQ7 whole entry, looked up): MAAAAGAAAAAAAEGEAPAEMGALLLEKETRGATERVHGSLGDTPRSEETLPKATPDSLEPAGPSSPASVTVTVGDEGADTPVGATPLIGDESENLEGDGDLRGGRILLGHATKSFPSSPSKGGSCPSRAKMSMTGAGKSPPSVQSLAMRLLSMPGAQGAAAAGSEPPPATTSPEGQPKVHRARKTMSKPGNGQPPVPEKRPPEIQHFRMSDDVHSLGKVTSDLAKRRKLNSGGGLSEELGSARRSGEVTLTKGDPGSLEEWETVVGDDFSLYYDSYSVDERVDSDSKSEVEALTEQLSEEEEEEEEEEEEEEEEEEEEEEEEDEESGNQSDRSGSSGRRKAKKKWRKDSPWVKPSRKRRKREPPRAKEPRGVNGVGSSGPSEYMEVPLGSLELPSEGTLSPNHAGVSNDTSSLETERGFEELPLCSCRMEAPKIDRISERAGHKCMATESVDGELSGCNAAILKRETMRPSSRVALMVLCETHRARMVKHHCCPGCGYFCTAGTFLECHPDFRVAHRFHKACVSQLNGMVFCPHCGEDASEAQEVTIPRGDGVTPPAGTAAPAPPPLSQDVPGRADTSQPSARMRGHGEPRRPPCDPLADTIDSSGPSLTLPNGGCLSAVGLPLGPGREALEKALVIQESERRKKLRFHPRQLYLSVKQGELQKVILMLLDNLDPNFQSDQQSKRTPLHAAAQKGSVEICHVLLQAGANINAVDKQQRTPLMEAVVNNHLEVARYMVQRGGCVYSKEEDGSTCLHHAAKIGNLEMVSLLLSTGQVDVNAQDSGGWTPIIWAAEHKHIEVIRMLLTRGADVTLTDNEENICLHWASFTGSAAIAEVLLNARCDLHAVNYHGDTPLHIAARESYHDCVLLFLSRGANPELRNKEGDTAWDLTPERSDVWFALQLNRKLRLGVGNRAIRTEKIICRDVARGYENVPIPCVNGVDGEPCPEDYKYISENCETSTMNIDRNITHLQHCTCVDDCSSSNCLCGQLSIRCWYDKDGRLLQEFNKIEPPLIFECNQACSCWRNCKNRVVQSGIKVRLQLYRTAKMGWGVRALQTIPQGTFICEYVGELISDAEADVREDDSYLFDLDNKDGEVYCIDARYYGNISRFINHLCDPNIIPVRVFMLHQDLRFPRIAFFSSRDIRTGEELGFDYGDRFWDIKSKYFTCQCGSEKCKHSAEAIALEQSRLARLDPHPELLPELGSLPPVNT

SMILES	Potency	activity, negative = inhibition
COc1ccc(OC)c(Nc2nc(N)c([N+](=O)[O-])c(N3CCOCC3)n2)c1	inconclusive: 79.4 µM [inhibitor, single point]	–
COC(=O)c1ccc(C2C(C(=O)c3cc4ccccc4o3)=C(O)C(=O)N2CCCN(C)C)cc1 (stereo unspecified)	inconclusive: 44.7 µM [inhibitor, partial curve, poor fit]	–
CCCCc1nnc(NC(=O)CSc2nc(O)c(Cc3ccccc3)c(=O)[nH]2)s1	inconclusive: 56.2 µM [inhibitor, partial curve, poor fit]	–
CN(C)CCCCOc1ccccc1-c1ccccc1	active: 3.55 µM	–
Cc1ccc(N2CC(NC(=O)c3ccc(S(=O)(=O)N4CCOCC4)cc3)CC2=O)cc1C (stereo unspecified)	inconclusive: 0.501 µM [inhibitor, partial curve, poor fit]	–
CCn1ccnc1CN1CCCC(C(=O)c2ccc3c4c(cccc24)CC3)C1 (stereo unspecified)	active: 35.5 µM	–
N#Cc1c(-c2ccccc2)nc2n1CCS2	inactive	–
O/N=C(\c1ccccn1)C1CC1c1ccccc1 (stereo unspecified)	–	inconclusive: -73.3% [inhibitor] [at 12.7 µM]
CS(=O)(=O)n1nc(OC(=O)c2cc(Br)ccc2Cl)cc1N	active: 31.6 µM	–
CCC(c1nnnn1C(C)(C)C)N1CCN(Cc2ccccc2OC)CC1 (stereo unspecified)	inconclusive: 79.4 µM [inhibitor, single point]	–
CCOC(=O)CSc1nnc(Cn2c(=O)sc3ccccc32)n1-c1ccccc1C	inconclusive: 39.8 µM [inhibitor, single point]	–
COc1ccc(CCNC(=O)CCCn2c(=O)c3ccccc3n(Cc3ccc(F)cc3Cl)c2=O)cc1OC	inactive	–
Cn1c(CN2CCN(CC#N)CC2)c(C#N)c2ccccc21	active: 44.7 µM	–
COc1ccc(Cl)cc1NC(=O)CN(C)C(=O)CNC(=O)C12CC3CC(CC(C3)C1)C2	–	inactive: 7.61% [at 12.7 µM]
CS(=O)(=O)CCC(C(=O)Nc1ccc2c(c1)OCO2)N1Cc2ccccc2C1=O (stereo unspecified)	inconclusive: 79.4 µM [inhibitor, partial curve, poor fit]	–
c1ccc(-n2cnnc2SCc2cn3ccsc3n2)cc1	inconclusive: 50.1 µM [inhibitor, partial curve, poor fit]	–
CN(c1ncc(C(F)(F)F)cc1Cl)n1cc(C(=O)O)c2ccccc2c1=O	inactive	–
Cc1cc(OC(=O)c2cccc(Br)c2)c([N+](=O)[O-])c(=O)[nH]1	inconclusive: 89.1 µM [inhibitor, single point]	–
COc1ccccc1NC(=O)c1cccc(N2C(=O)C3C4C=CC(C4)C3C2=O)c1 (stereo unspecified)	inactive	–
O=C(COC(=O)Cc1ccc(Cl)c(Cl)c1)NCc1ccco1	inconclusive: 50.1 µM [inhibitor, partial curve]	–
COc1ccc(CNC(=O)CCc2c(C)nn(-c3ccc(N4CCCCC4)nn3)c2C)c(OC)c1	inactive	–
Oc1ccccc1NCC(O)Cn1ccc2ccccc21 (stereo unspecified)	active: 28.2 µM	–
O=C(Nc1nnc(-c2ccncc2)s1)C1CCCO1 (stereo unspecified)	inconclusive: 6.31 µM [inhibitor, single point]	–
Cn1c(=O)n(C)c2cc(/C=C3/SC(=O)N(CC(=O)N4CCOCC4)C3=O)ccc21	inactive	–

SMILES	Potency	activity, negative = inhibition
Cn1nnc2sc3c(c2c1=O)CCCC3	inconclusive: 3.16 µM [inhibitor, partial curve, poor fit]	–
COc1ccccc1NS(=O)(=O)c1cc(NC(=O)c2sccc2C)ccc1N1CCCC1	active: 3.55 µM	–
CN(C)c1ccc(NC(=O)Cn2cc3c(n2)CCCC3)cc1	active: 28.2 µM	–
O=C(NCCc1ccc(Cl)cc1)c1ccc(Cn2c(=O)c3cccn3c3cccnc32)cc1	inconclusive: 22.4 µM [inhibitor, partial curve, poor fit]	–
O=C(Nc1cccc(F)c1)C1CCN(S(=O)(=O)c2cnc[nH]2)CC1	inconclusive: 25.1 µM [inhibitor, partial curve, poor fit]	–
Cc1ccc(-n2ncc(C(=O)NCCCN3CCN(c4cccc(Cl)c4)CC3)c2-n2cccc2)cc1	inconclusive: 3.55 µM [inhibitor, partial curve, poor fit]	–
CC(C)NS(=O)(=O)c1ccc(OCC(=O)NCc2ccc3c(c2)OCO3)c(Cl)c1	–	inactive: -6.83% [at 12.7 µM]
Cc1ncc(CC(=O)n2cc(C(=O)c3cc(F)ccc3O)cn2)s1	–	inactive: -3.12% [at 12.7 µM]
CCCC(=O)C1=C(O)C(C(=O)OC)C(C)(C)CC1=Nc1cccc2ccccc12 (stereo unspecified)	inconclusive: 28.2 µM [inhibitor, partial curve, poor fit]	–
O=c1[nH]c2ccc(NCc3ccccc3OCc3ccc(Cl)cc3)cc2[nH]1	active: 25.1 µM	–
Cc1ccc(S(=O)(=O)N2CCOCC2)cc1C(=O)Nc1cc(Cl)ccc1N1CCOCC1	inconclusive: 44.7 µM [inhibitor, partial curve]	–
O=c1cc(/C=C/c2ccccc2)oc2c1ccc1ccccc12	inconclusive: 31.6 µM [inhibitor, single point]	–
O=C(CSc1nc2ccccc2[nH]1)Nc1ccc(N2CCOCC2)cc1	inconclusive: 89.1 µM [inhibitor, single point]	–
COc1ccc(N2CCN(C(=O)c3ccc4c(c3)N(Cc3ccc(F)cc3)C(=O)c3ccccc3S4=O)CC2)cc1 (stereo unspecified)	inconclusive: 8.91 µM [inhibitor, partial curve]	–
Clc1ccc(-n2nnc(-c3cccnc3Cl)n2)cc1Cl	–	inconclusive: -56.4% [inhibitor]
COc1ccccc1C(=O)n1nc(-c2ccco2)nc1NCc1ccc(Cl)cc1	inconclusive: 14.1 µM [inhibitor, partial curve]	–
COc1ccc(/C=C2\SC(=S)N(C(Cc3ccccc3)C(=O)O)C2=O)cc1 (stereo unspecified)	active: 25.1 µM	–
CC(C)C(=O)NC(=S)Nc1ccccn1	active: 56.2 µM	–
CSc1nsc(/C=C/Nc2ccc(F)cc2F)c1C#N	active: 31.6 µM	–
COc1ccccc1Nc1nc(N)nc(CN2CCOCC2)n1	inconclusive: 89.1 µM [inhibitor, single point]	–
Cc1ccc(NC(=O)CCc2nc3ccccc3c(=O)[nH]2)cc1S(=O)(=O)N1CCOCC1	inconclusive: 50.1 µM [inhibitor, partial curve, poor fit]	–
O=C(CCc1nnc(-c2ccc3c(c2)OCO3)o1)NC(c1cccnc1)C(F)(F)F (stereo unspecified)	inactive	–
COc1ccc(N2C(=S)NC(C)(C)CC2(C)c2ccc(OC(C)=O)cc2OC(C)=O)cc1 (stereo unspecified)	active: 79.4 µM	–
Cc1ccc(S(=O)(=O)N2CCCN(Cc3nc4ccccc4c(=O)[nH]3)CC2)cc1	active: 25.1 µM	–

SMILES	Potency	activity, negative = inhibition
O=C(c1cccs1)N1CCN(c2nc3c(F)cc(F)cc3s2)CC1	–	inactive: -3.16% [at 0.501 µM]
O=C(c1cccc(N2CCCC2=O)c1)N1CCN(c2ccccc2)CC1	inconclusive: 22.4 µM [inhibitor, single point]	–
Cc1ccc(-c2csc(=Nc3ccccc3)n2Cc2ccc3c(c2)OCO3)cc1C	active: 14.1 µM	–
CCN1CCN(C(c2ccccc2)c2sc3nc(-c4ccco4)nn3c2O)CC1 (stereo unspecified)	inactive	–
COc1ccccc1CC(=O)NCCc1ccc(S(N)(=O)=O)cc1	inconclusive: 20 µM [inhibitor, single point]	–
CCOC(=O)/C(C(=O)Nc1ccccc1Cl)=C1/NC(C)(C)Cc2ccccc21	inconclusive: 44.7 µM [inhibitor, partial curve, poor fit]	–
CCOC(=O)c1cnc(-n2nc(C)cc2C)nc1Oc1ccc(C(=O)OC)cc1	inconclusive: 70.8 µM [inhibitor, partial curve, poor fit]	–
O=C(COC(=O)c1cnccn1)c1cccc([N+](=O)[O-])c1	inconclusive: 8.91 µM [inhibitor, partial curve, poor fit]	–
CCOC(=O)/C(N=Nc1sc(C(=O)OC)c(C)c1C(=O)OCC)=C(\O)CCl	inconclusive: 39.8 µM [inhibitor, single point]	–
Cc1cccc(-n2nc(C)c3c(C(=O)O)cc(-c4cccs4)nc32)c1	inactive	–
COc1cc(NC(=O)COC(=O)c2cc(S(=O)(=O)N3CCCCC3)ccc2Cl)c(C)cc1[N+](=O)[O-]	inconclusive: 44.7 µM [inhibitor, partial curve, poor fit]	–
CN(c1ccccc1)S(=O)(=O)c1cccc(NC(=O)CN2CCCc3ccccc32)c1	active: 39.8 µM	–
CNC(=S)Nc1sc2c(c1C(=O)OC)CCC2	active: 15.8 µM	–
CC(Oc1ccc(Cl)cc1)C(=O)NNC(=S)NC(=O)c1ccco1 (stereo unspecified)	active: 11.2 µM	–
Cc1ccc(C)c(OCC(=O)NNC(=O)C2CCC2)c1	–	inactive: -2.65% [at 12.7 µM]
Cc1cc(C)c(C)c(OCCCn2ccnc2)c1	active: 8.91 µM	–
CCN(CC(=O)Nc1ccc(NC(C)=O)cc1)C(=O)/C=C/c1c(C)nn(-c2ccc(F)cc2)c1Cl	inconclusive: 89.1 µM [inhibitor, partial curve, poor fit]	–
COc1cc2ccccc2c2c1CCCC2=O	inconclusive: 39.8 µM [inhibitor, single point]	–
COc1ccc(N2CCN(C3CC(=O)N(C)C3=O)CC2)cc1 (stereo unspecified)	–	inconclusive: -67.4% [inhibitor]
CCOC(=O)c1ccc(-n2c(CC)nc3ccccc3c2=O)cc1	inactive	–
CCOC(=O)c1c(C)n(CC(O)c2ccccc2)c2ccc(O)cc12 (stereo unspecified)	active: 56.2 µM	–
c1ccc2[nH]c(C3CC3)nc2c1	inactive	–
COc1cccc(NC(=O)CSc2nccn(-c3ccc4c(c3)OCCO4)c2=O)c1	inconclusive: 50.1 µM [inhibitor, partial curve]	–
